Reference: the supplement of paper PMC8728848
The list shows a part of the results.

Key:
Test in all cases: glycan array binding signal (z-score within array); higher = stronger binding
Settings in all cases: glycan notation: IUPAC condensed, linker removed
[1] = target: Fuc(a1-2)Gal6S(b1-3)GlcNAc
Summary of the method: (§1)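 The Consortium for Functional Glycomics database supplied 3228 glycan arrays, of which those lacking an available protein sequence were dropped. The binding signal, a within-array Z-score, was averaged across arrays of the same protein sequence and across linkers. Negative scores can be read as non-binding.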

[2] = target: Fuc(a1-2)Gal6S(b1-3)GlcNAc6S
Summary of the method: as §1

Fuc(a1-2)Gal6S(b1-4)Glc = target: Fuc(a1-2)Gal6S(b1-4)Glc
Summary of the method: as §1

[3] = target: Fuc(a1-2)Gal6S(b1-4)Glc6S
Summary of the method: as §1

Fuc(a1-2)[Gal(a1-3)]Gal = target: Fuc(a1-2)[Gal(a1-3)]Gal
Summary of the method: as §1

[4] = target: Fuc(a1-2)[Gal(a1-3)]Gal(b1-3)GalNAc
Summary of the method: as §1

[5] = target: Fuc(a1-2)[Gal(a1-3)]Gal(b1-3)GalNAc(b1-3)Gal(a1-4)Gal(b1-4)Glc
Summary of the method: as §1

[6] = target: Fuc(a1-2)[Gal(a1-3)]Gal(b1-3)GlcNAc
Summary of the method: as §1

[7] = target: Fuc(a1-2)[Gal(a1-3)]Gal(b1-3)GlcNAc(b1-2)Man(a1-3)[Fuc(a1-2)[Gal(a1-3)]Gal(b1-3)GlcNAc(b1-2)Man(a1-6)]Man(b1-4)GlcNAc(b1-4)GlcNAc
Summary of the method: as §1

[8] = target: Fuc(a1-2)[Gal(a1-3)]Gal(b1-3)GlcNAc(b1-2)Man(a1-3)[Fuc(a1-2)[Gal(a1-3)]Gal(b1-3)GlcNAc(b1-2)Man(a1-6)]Man(b1-4)GlcNAc(b1-4)[Fuc(a1-6)]GlcNAc
Summary of the method: as §1

[9] = target: Fuc(a1-2)[Gal(a1-3)]Gal(b1-3)GlcNAc(b1-3)GalNAc
Summary of the method: as §1

[10] = target: Fuc(a1-2)[Gal(a1-3)]Gal(b1-3)GlcNAc(b1-6)GalNAc
Summary of the method: as §1

[11] = target: Fuc(a1-2)[Gal(a1-3)]Gal(b1-4)Glc
Summary of the method: as §1

[12] = target: Fuc(a1-2)[Gal(a1-3)]Gal(b1-4)GlcNAc
Summary of the method: as §1

[13] = target: Fuc(a1-2)[Gal(a1-3)]Gal(b1-4)GlcNAc(b1-2)Man
Summary of the method: as §1

[14] = target: Fuc(a1-2)[Gal(a1-3)]Gal(b1-4)GlcNAc(b1-2)Man(a1-3)[Fuc(a1-2)[Gal(a1-3)]Gal(b1-4)GlcNAc(b1-2)Man(a1-6)]Man(b1-4)GlcNAc(b1-4)GlcNAc
Summary of the method: as §1

[15] = target: Fuc(a1-2)[Gal(a1-3)]Gal(b1-4)GlcNAc(b1-2)Man(a1-3)[Fuc(a1-2)[Gal(a1-3)]Gal(b1-4)GlcNAc(b1-2)Man(a1-6)]Man(b1-4)GlcNAc(b1-4)[Fuc(a1-6)]GlcNAc
Summary of the method: as §1

[16] = target: Fuc(a1-2)[Gal(a1-3)]Gal(b1-4)GlcNAc(b1-3)GalNAc
Summary of the method: as §1

[17] = target: Fuc(a1-2)[Gal(a1-3)]Gal(b1-4)GlcNAc(b1-3)[Fuc(a1-2)[Gal(a1-3)]Gal(b1-4)GlcNAc(b1-6)]GalNAc
Summary of the method: as §1

[18] = target: Fuc(a1-2)[Gal(a1-3)]Gal(b1-4)GlcNAc(b1-6)GalNAc
Summary of the method: as §1

[19] = target: Fuc(a1-2)[Gal(a1-3)]Gal(b1-4)[Fuc(a1-3)]Glc
Summary of the method: as §1

[20] = target: Fuc(a1-2)[Gal(a1-3)]Gal(b1-4)[Fuc(a1-3)]GlcNAc
Summary of the method: as §1

[21] = target: Fuc(a1-2)[Gal(a1-3)]Gal(b1-4)[Fuc(a1-3)]GlcNAc(b1-3)GalNAc
Summary of the method: as §1

[22] = target: Fuc(a1-2)[Gal(a1-4)]Gal(b1-4)GlcNAc
Summary of the method: as §1

[23] = target: Fuc(a1-2)[GalNAc(a1-3)]Gal
Summary of the method: as §1

[24] = target: Fuc(a1-2)[GalNAc(a1-3)]Gal(b1-3)GalNAc(a1-3)[Fuc(a1-2)]Gal(b1-4)GlcNAc
Summary of the method: as §1

[25] = target: Fuc(a1-2)[GalNAc(a1-3)]Gal(b1-3)GalNAc(b1-3)Gal(a1-4)Gal(b1-4)Glc
Summary of the method: as §1

[26] = target: Fuc(a1-2)[GalNAc(a1-3)]Gal(b1-3)GlcNAc
Summary of the method: as §1

[27] = target: Fuc(a1-2)[GalNAc(a1-3)]Gal(b1-3)GlcNAc(b1-2)Man(a1-3)[Fuc(a1-2)[GalNAc(a1-3)]Gal(b1-3)GlcNAc(b1-2)Man(a1-6)]Man(b1-4)GlcNAc(b1-4)GlcNAc
Summary of the method: as §1

[28] = target: Fuc(a1-2)[GalNAc(a1-3)]Gal(b1-3)GlcNAc(b1-2)Man(a1-3)[Fuc(a1-2)[GalNAc(a1-3)]Gal(b1-3)GlcNAc(b1-2)Man(a1-6)]Man(b1-4)GlcNAc(b1-4)[Fuc(a1-6)]GlcNAc
Summary of the method: as §1

[29] = target: Fuc(a1-2)[GalNAc(a1-3)]Gal(b1-3)GlcNAc(b1-3)GalNAc
Summary of the method: as §1

[30] = target: Fuc(a1-2)[GalNAc(a1-3)]Gal(b1-3)GlcNAc(b1-6)GalNAc
Summary of the method: as §1

[31] = target: Fuc(a1-2)[GalNAc(a1-3)]Gal(b1-4)Glc
Summary of the method: as §1

[32] = target: Fuc(a1-2)[GalNAc(a1-3)]Gal(b1-4)GlcNAc
Summary of the method: as §1

[33] = target: Fuc(a1-2)[GalNAc(a1-3)]Gal(b1-4)GlcNAc(b1-2)Man
Summary of the method: as §1

[34] = target: Fuc(a1-2)[GalNAc(a1-3)]Gal(b1-4)GlcNAc(b1-2)Man(a1-3)[Fuc(a1-2)[GalNAc(a1-3)]Gal(b1-4)GlcNAc(b1-2)Man(a1-6)]Man(b1-4)GlcNAc(b1-4)GlcNAc
Summary of the method: as §1

[35] = target: Fuc(a1-2)[GalNAc(a1-3)]Gal(b1-4)GlcNAc(b1-2)Man(a1-3)[Fuc(a1-2)[GalNAc(a1-3)]Gal(b1-4)GlcNAc(b1-2)Man(a1-6)]Man(b1-4)GlcNAc(b1-4)[Fuc(a1-6)]GlcNAc
Summary of the method: as §1

[36] = target: Fuc(a1-2)[GalNAc(a1-3)]Gal(b1-4)GlcNAc(b1-3)Gal(b1-4)GlcNAc
Summary of the method: as §1

[37] = target: Fuc(a1-2)[GalNAc(a1-3)]Gal(b1-4)GlcNAc(b1-3)Gal(b1-4)GlcNAc(b1-3)Gal(b1-4)GlcNAc
Summary of the method: as §1

[38] = target: Fuc(a1-2)[GalNAc(a1-3)]Gal(b1-4)GlcNAc(b1-3)GalNAc
Summary of the method: as §1

[39] = target: Fuc(a1-2)[GalNAc(a1-3)]Gal(b1-4)GlcNAc(b1-3)[Fuc(a1-2)[GalNAc(a1-3)]Gal(b1-4)GlcNAc(b1-6)]GalNAc
Summary of the method: as §1

[40] = target: Fuc(a1-2)[GalNAc(a1-3)]Gal(b1-4)GlcNAc(b1-6)GalNAc
Summary of the method: as §1

[41] = target: Fuc(a1-2)[GalNAc(a1-3)]Gal(b1-4)[Fuc(a1-3)]GlcNAc
Summary of the method: as §1

[42] = target: Fuc(a1-2)[GalNAc(a1-3)]Gal(b1-4)[Fuc(a1-3)]GlcNAc(b1-3)GalNAc
Summary of the method: as §1

[43] = target: Fuc(a1-2)[GalNAc(a1-4)]Gal(b1-4)GlcNAc
Summary of the method: as §1

B1: LSL-150 (Laetiporus sulphureus), Q7Z8V1 (protein)
chain: MTDIYIPPEGLYFRLLGFASRQVIFARNSPSPDVGLSPVNDQATDQYFSLIYGTGEHAGLYAIKSKATGKVLFSRRPAEPYVGQIDGDGRYPDNWFKIEPGKTYLSKYFRLVQPSTGTALVSRTHLQPYFWNHPQTEVFDDQYFTFLFEDHHHHHH
[1]
  glycan array binding signal (z-score): -0.201
[2]
  glycan array binding signal (z-score): -0.195
Fuc(a1-2)Gal6S(b1-4)Glc
  glycan array binding signal (z-score): -0.208
[3]
  glycan array binding signal (z-score): -0.204
Fuc(a1-2)[Gal(a1-3)]Gal
  glycan array binding signal (z-score): -0.199
[4]
  glycan array binding signal (z-score): -0.208
[5]
  glycan array binding signal (z-score): -0.208
[6]
  glycan array binding signal (z-score): -0.206
[7]
  glycan array binding signal (z-score): -0.205
[8]
  glycan array binding signal (z-score): -0.207
[9]
  glycan array binding signal (z-score): -0.203
[10]
  glycan array binding signal (z-score): -0.208
[11]
  glycan array binding signal (z-score): -0.201
[12]
  glycan array binding signal (z-score): -0.209
[13]
  glycan array binding signal (z-score): -0.208
[14]
  glycan array binding signal (z-score): -0.209
[15]
  glycan array binding signal (z-score): -0.202
[16]
  glycan array binding signal (z-score): -0.21
[17]
  glycan array binding signal (z-score): -0.204
[18]
  glycan array binding signal (z-score): -0.207
[19]
  glycan array binding signal (z-score): -0.2
[20]
  glycan array binding signal (z-score): -0.206
[21]
  glycan array binding signal (z-score): -0.199
[22]
  glycan array binding signal (z-score): -0.204
[23]
  glycan array binding signal (z-score): -0.207
[24]
  glycan array binding signal (z-score): -0.21
[25]
  glycan array binding signal (z-score): -0.209
[26]
  glycan array binding signal (z-score): -0.214
[27]
  glycan array binding signal (z-score): -0.208
[28]
  glycan array binding signal (z-score): -0.209
[29]
  glycan array binding signal (z-score): -0.212
[30]
  glycan array binding signal (z-score): -0.208
[31]
  glycan array binding signal (z-score): -0.197
[32]
  glycan array binding signal (z-score): -0.211
[33]
  glycan array binding signal (z-score): -0.208
[34]
  glycan array binding signal (z-score): -0.208
[35]
  glycan array binding signal (z-score): -0.201
[36]
  glycan array binding signal (z-score): 0.142
[37]
  glycan array binding signal (z-score): 2.99
[38]
  glycan array binding signal (z-score): -0.211
[39]
  glycan array binding signal (z-score): -0.203
[40]
  glycan array binding signal (z-score): -0.21
[41]
  glycan array binding signal (z-score): -0.205
[42]
  glycan array binding signal (z-score): -0.203
[43]
  glycan array binding signal (z-score): -0.196
